# Measured values as given in paper PMC3290997 (Biochemistry, 2012).
# Target: the molecule itself
# Experiment: cross-linking
protein,measurement,value
SecA (enzyme) not shown,stoichiometry N,2
